Out of some 310,000 compounds screened, about 14,000 (4.5%) showed an effect of 50% or more. The effect is printed as a negative number. This is one part of the list.
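Note: peak tail current of the secondary pulse compared with the same well before compound.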

Chain of human ether-à-go-go-related gene (hERG) potassium channel (Q12809 whole entry, looked up): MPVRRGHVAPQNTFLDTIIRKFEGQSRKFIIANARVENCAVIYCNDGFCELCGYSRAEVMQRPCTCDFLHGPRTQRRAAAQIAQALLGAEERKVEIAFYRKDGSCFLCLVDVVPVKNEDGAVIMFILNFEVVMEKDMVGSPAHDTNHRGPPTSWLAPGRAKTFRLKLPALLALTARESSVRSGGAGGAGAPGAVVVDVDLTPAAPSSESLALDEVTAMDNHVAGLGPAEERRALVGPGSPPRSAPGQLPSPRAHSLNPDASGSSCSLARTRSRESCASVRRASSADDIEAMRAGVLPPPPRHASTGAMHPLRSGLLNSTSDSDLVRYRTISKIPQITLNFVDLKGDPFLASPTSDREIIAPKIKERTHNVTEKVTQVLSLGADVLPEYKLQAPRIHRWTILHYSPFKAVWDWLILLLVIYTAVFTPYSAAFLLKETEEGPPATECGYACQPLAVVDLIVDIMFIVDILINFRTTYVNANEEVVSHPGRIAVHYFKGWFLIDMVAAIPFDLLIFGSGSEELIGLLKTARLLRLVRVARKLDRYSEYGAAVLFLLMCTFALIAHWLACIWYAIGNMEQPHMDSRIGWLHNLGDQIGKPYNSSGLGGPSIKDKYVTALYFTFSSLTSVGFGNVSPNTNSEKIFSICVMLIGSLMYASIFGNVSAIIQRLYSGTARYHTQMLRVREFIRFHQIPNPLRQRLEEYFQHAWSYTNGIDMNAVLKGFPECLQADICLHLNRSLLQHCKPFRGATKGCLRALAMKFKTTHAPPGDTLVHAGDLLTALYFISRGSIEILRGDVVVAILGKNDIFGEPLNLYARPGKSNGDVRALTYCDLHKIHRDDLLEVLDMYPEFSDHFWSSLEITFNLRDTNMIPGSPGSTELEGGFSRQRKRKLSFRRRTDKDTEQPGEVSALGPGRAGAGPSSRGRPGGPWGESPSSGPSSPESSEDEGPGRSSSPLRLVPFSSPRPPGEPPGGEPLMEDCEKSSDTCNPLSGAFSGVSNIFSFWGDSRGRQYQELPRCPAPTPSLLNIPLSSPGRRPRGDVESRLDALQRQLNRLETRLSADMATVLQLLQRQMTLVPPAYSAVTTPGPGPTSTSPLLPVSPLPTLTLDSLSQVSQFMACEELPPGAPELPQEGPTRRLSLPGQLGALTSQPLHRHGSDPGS

This test concerns the target human ether-à-go-go-related gene (hERG) potassium channel (human, UniProt Q12809). In words: primary screen, population patch clamp on CHO cells stably expressing hERG.
As to `COc1cccc(CN(CC2CCCO2)S(=O)(=O)c2ccc(S(=O)(=O)NCC3CCCO3)cc2)c1OC` (stereo not drawn), the “hERG current change (%, negative = inhibition) at 10uM” value is recorded as -11.1%.

As for `COc1ccccc1CNC(=O)CCNS(=O)(=O)c1cccc2nsnc12`, the “hERG current change (%, negative = inhibition) at 10uM” value is on record as -3.21%. The same measure for `O=C(Nc1ccc(F)cc1)c1ccc(C(=O)N2CCOCC2)cc1`: 6.53%; for `O=C(CCc1ccccc1)NNc1cc(N2CCCCC2)nc(N2CCCCC2)n1`: 15.2%; for `Cc1cccnc1NC(=O)CN1C(=O)COc2ccc(Cl)cc21`: 19.2%. The same measure for `CC(=O)Nc1cccc(/C(C)=N/NC(=O)c2ccc(Cl)cc2Cl)c1`: 29.2%; for `COc1ccc(/C=C2\SC(=S)N(CC(=O)OCC(=O)Nc3ccc(C)cc3Cl)C2=O)cc1`: 12.3%. The same measure for `Cn1nccc1C(=O)NC1CCCc2c1cnn2-c1cc(F)cc(F)c1` (stereo not drawn): -45.2%; for `CCOC(=O)N1CCC(NC(=O)C2CCCN(c3nc4ccccc4o3)C2)CC1` (stereo not drawn): -28.4%; for `CC(CC(=O)NC1CCCC1)c1ccccc1` (stereo not drawn): -3.12%. For the molecule `CCOc1cccc(CN2CCC(n3nccc3NC(=O)C3CCCC3)CC2)c1`, the “hERG current change (%, negative = inhibition) at 10uM” value is recorded as -55.3%. The value for `CSc1ccc(/C=C(/NC(=O)c2ccc(C)cc2)C(=O)Nc2cccc(F)c2)cc1` was 6.66%. As to `C/C(=N/NS(=O)(=O)c1ccccc1)c1ccc(NC(=O)C(F)(F)F)cc1`, the “hERG current change (%, negative = inhibition) at 10uM” value came out at 1.89%.

Turning to `CCOc1cc(C(=O)N2CCN(c3ccc(C(C)=O)cc3)CC2)cc(OCC)c1OCC`, the “hERG current change (%, negative = inhibition) at 10uM” value is given as -18.1%. The value for `O=C(N=C1SC2CS(=O)(=O)CC2N1Cc1ccc(Cl)cc1)C1CC1` (stereo not drawn) was 11.5%. The same measure for `CC(=O)NC1N=C(C)N(c2ccccc2)C1=O` (stereo not drawn): 7.13%. The same measure for `COC(=O)c1cc(S(=O)(=O)NCC2CCN(Cc3ccc(Cl)cc3)CC2)c[nH]1`: -71.2%; for `COc1ccc(CCNC(=O)C2(C)CCC(=O)N2CCC(C)C)cc1OC` (stereo not drawn): -8.53%; for `Cc1cc(C)c2c(c1)C(=O)/C(=C/c1ccc(C(=O)O)cc1)CC2`: 4.85%. Consider `O=C(CCn1nnc2ccccc21)N/N=C\Cc1ccccc1`, for which the “hERG current change (%, negative = inhibition) at 10uM” value is listed as -5.07%.

As to `CCCCOc1ccc(C(NC(=O)OCC)NC(=O)OCC)cc1`, the “hERG current change (%, negative = inhibition) at 10uM” value was found to be 6.73%. The same measure for `Cc1ccc(CNC(=S)NCc2ccncc2)cc1`: -35.9%; for `O=C(NCc1ccccc1)c1nc(S(=O)(=O)Cc2ccccc2)ncc1Cl`: 9.46%; for `COc1ccc(OC)c(C(c2nnnn2CCc2ccccc2)N2CCN(c3ccccc3)CC2)c1` (stereo not drawn): -16.7%.

Source of the values: article PMC4336329 (PLoS ONE, 2015).
